This is an account of results in PubChem BioAssay AID1347073 (National Center for Advancing Translational Sciences (NCATS), 2019).

The campaign covered roughly 45,000 compounds. About 200 (0.44%) were called active. Inconclusive results (about 7%) are left out. The call rests on the fitted dose curve; in most records, active means well fitted activation curve with a large enough effect; inconclusive means small, poorly fitted or top-dose-only effect; inactive means no such curve, though single readings can be large or run the other way. The list shows a part of the results.

The experiment is described as follows: qHTS of TDP-43 Inhibitors: NCGC Sytravon Library Screen. Further: 0% is about no effect; nearly all actives have a fitted effect of over 55% in size. Particulars: yeast TDP-43 toxicity rescue, BacTiter-Glo growth, 24 h; series mostly up to 46.1 µM; growth rescue (activation): at the top concentration. The method, boiled down: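 TDP-43-expressing yeast, pregrown in raffinose, seeded at OD600 0.02 in galactose medium with compound for 24 hr at 30 deg C. Growth read by BacTiter-Glo luminescence, so rescue of toxicity appears as activation.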
For orientation: In qHTS, concentration-response curves come from the screen itself.
Regarding `C/C(CC(=O)Nc1cc(Cl)ccc1C)=N\NC(N)=O`, the “growth rescue (activation)” value was inactive: 1.81%.

Consider `Cc1ccc(S(=O)(=O)N/N=c2\sc3ccccc3n2C)cc1`, for which the “growth rescue (activation)” value was inactive: 18%.

Regarding `CCc1ccc2nc(NC(=O)CN3C(=O)NC4(CCCC4)C3=O)sc2c1`, the “growth rescue (activation)” value was inactive: -16.9%.

Take `Cc1ccc(CNC(=O)COC(=O)c2cnc(C)cn2)cc1`: the “growth rescue (activation)” value is inactive: 8.46%.

Regarding `CCOC(=O)C1(Cc2ccc(OC)cc2)CCN(C(=O)CCn2cccn2)CC1`, the “growth rescue (activation)” value is inactive: -7.66%.

`NC(=S)n1[nH]c(-c2ccc([N+](=O)[O-])cc2)c(N=Nc2cccc(Cl)c2)c1=O`: the “growth rescue (activation)” value was inactive: 3.57%.

For the compound `CN(CC(=O)NCc1ccccn1)S(=O)(=O)c1ccc2ccccc2c1`, the “growth rescue (activation)” value was inactive: 2.19%.

`COc1ccc(N(CC(=O)N2CCCCCC2)S(=O)(=O)c2ccccc2[N+](=O)[O-])c(OC)c1`: the “growth rescue (activation)” value was inactive: 5.32%.

For `CC(NCC(=O)Nc1ccccc1C(=O)NC1CC1)c1cccs1` (stereo not drawn), the “growth rescue (activation)” value is inactive: 3.66%.

On to `CCOC(=O)C1CCCN(C(=O)c2cccc3ccccc23)C1` (stereo not drawn), for which the “growth rescue (activation)” value was inactive: 28.7%.

`Cc1onc(-c2c(F)cccc2Cl)c1C(=O)NCCc1ccncc1`: the “growth rescue (activation)” value is inactive: -0.996%.

In the case of `CCOc1ccc(NC(=O)Nc2cc(OCC(F)(F)F)cc(OCC(F)(F)F)c2)cc1`, the “growth rescue (activation)” value is inactive: -8.58%.

As for `CC1CCCC(NC(=O)C2N(CCCN3CCCC3)C(=O)C3C(C(=O)Nc4ccc(Cl)cc4)C4C=CC32O4)C1C` (stereo not drawn), the “growth rescue (activation)” value is inactive: 18.3%.

With `Cc1ccc(-c2nc(C)c(C(=O)O)s2)cc1`, the “growth rescue (activation)” value is inactive: 3.83%.

Regarding `CCCCC(=O)NC(=S)Nc1cccc(NC(=O)c2ccco2)c1`, the “growth rescue (activation)” value was inactive: 0.787%.

For `COc1cccc(/C=N/NC(=O)CC(C)O)c1OC/C=C/c1ccccc1` (stereo not drawn), the “growth rescue (activation)” value is inactive: -5.99%.

For the compound `c1ccc(OCCNc2ccn3nc(-c4ccccc4)cc3n2)cc1`, the “growth rescue (activation)” value was inactive: 12.2%.

Take `CC(Oc1ccc(Cl)cc1Cl)C(=O)NNC(=O)C(=O)N1CCCC1` (stereo not drawn): the “growth rescue (activation)” value is inactive: 8.02%.

On to `O=C(CN(C(=O)CNC(=O)c1cccs1)c1ccccc1F)NC1CCCCC1`, for which the “growth rescue (activation)” value is inactive: -21.6%.

Consider `COc1cc(OC)c(OC)cc1CNC(=O)c1ccc(COc2ccccc2)cc1`, for which the “growth rescue (activation)” value is inactive: 14.6%.

Take `CN1CCN(/N=C/c2nc(-c3ccccc3)n3ccccc23)CC1`: the “growth rescue (activation)” value is inactive: -11.7%.

In the case of `CN(C)c1ccc(NC(=O)c2ccc(Cn3cc([N+](=O)[O-])cn3)cc2)cc1`, the “growth rescue (activation)” value is inactive: 4.07%.

In the case of `CN(C)c1ccc(NC(=O)COC(=O)c2cc(Cl)ccc2[N+](=O)[O-])cc1`, the “growth rescue (activation)” value is inactive: 22.5%.

Take `C/C(=N/NC(=O)CNC(=O)Cc1ccccc1)c1ccc(Cl)cc1`: the “growth rescue (activation)” value was inactive: 8.49%.

Take `CC(C)Oc1ccc(C(=O)NCCCNC(=O)c2ccccn2)cc1`: the “growth rescue (activation)” value was inactive: -8.69%.

On to `CCc1cc(C(=O)COc2ccc(F)cc2)c(O)cc1O`, for which the “growth rescue (activation)” value was inactive: 16.2%.

As for `COc1ccc(C(=O)Cn2cnc3ccccc3c2=O)cc1`, the “growth rescue (activation)” value was inactive: -34.7%.

`COc1cc(NC(=O)COC(=O)CC(NC(C)=O)c2ccccc2)cc(OC)c1` (stereo not drawn): the “growth rescue (activation)” value was inactive: -5.58%.

`COCCCn1c(=N)c(C(N)=S)cc2c(=O)n3cccc(C)c3nc21`: the “growth rescue (activation)” value was inactive: 24.8%.

Turning to `CC(c1ccccc1)N1C(=O)C2C3CCC(C3)C2C1=O` (stereo not drawn), the “growth rescue (activation)” value is inactive: 24.2%.

On to `COc1cc(OC)c(OC)cc1CNc1nnnn1C`, for which the “growth rescue (activation)” value was inactive: -1.04%.

Take `Cc1ccc(N2CC(C(=O)NC3CC3)CC2=O)cc1` (stereo not drawn): the “growth rescue (activation)” value was inactive: -0.971%.

For the compound `CC(C)c1ccccc1NS(=O)(=O)c1cccs1`, the “growth rescue (activation)” value is inactive: 21.6%.

As to `O=C(CSc1nnc(-c2ccc(O)cc2)o1)NNC(=O)c1ccncc1`, the “growth rescue (activation)” value is inactive: 5.05%.

Consider `CCOC(=O)N1CCN(C(=O)c2ccccc2NC(=O)c2ccccc2Cl)CC1`, for which the “growth rescue (activation)” value is inactive: 9.57%.

On to `COc1ccc(Cc2nc3ccc(C(=O)NCC4COCCO4)cc3o2)cc1` (stereo not drawn), for which the “growth rescue (activation)” value was inactive: -20.6%.

In the case of `CC(=O)Nc1ccc(NC(=O)C(C)OC(=O)c2ccc(S(=O)(=O)N3CCCCCC3)cc2)cc1` (stereo not drawn), the “growth rescue (activation)” value was inactive: -11.7%.

Take `N#Cc1ccccc1NC(=O)COC(=O)c1ccc(F)cc1F`: the “growth rescue (activation)” value is inactive: -1.44%.

Consider `O=C(Nc1ccccc1N1CCOCC1)C1(c2ccc(Cl)cc2)CCC1`, for which the “growth rescue (activation)” value is inactive: 16.2%.

On to `O=C(/C=C/c1c(Cl)cccc1Cl)NCc1ccco1`, for which the “growth rescue (activation)” value is inactive: -26.3%.

With `Cc1ccc(-n2c(SCC(=O)N/N=C/c3c(C)nn(-c4ccccc4)c3C)nc3ccccc3c2=O)cc1`, the “growth rescue (activation)” value is inactive: 4.47%.

`Cc1cc2cc(C)c(SCC(=O)NCc3ccco3)nc2cc1C`: the “growth rescue (activation)” value is inactive: 18.6%.

With `CCOC(=O)N1CCC(NCc2c(C(=O)N(C)Cc3ccccc3)nc3ccccn23)CC1`, the “growth rescue (activation)” value was inactive: 7.45%.

In the case of `NNc1nc(Nc2ccccc2)nc(Nc2ccccc2)n1`, the “growth rescue (activation)” value is inactive: 15.6%.

For `CC(=O)Nc1cccc(NC(=O)Nc2cccc(Cl)c2C)c1`, the “growth rescue (activation)” value is inactive: 8.84%.

Turning to `CCOc1ccc(CNC(=O)C2CCN(c3nnc(-n4cccc4CNc4ccc(C)cc4)s3)CC2)cc1OC`, the “growth rescue (activation)” value is inactive: 5.13%.

In the case of `COc1cc(/C=C2\SC(N3CCCCC3)=NC2=O)cc(OC)c1OC`, the “growth rescue (activation)” value is inactive: 8.9%.

Turning to `CCc1c(C)nc(SCC(=O)N2CCN(c3ccccc3OC)CC2)[nH]c1=O`, the Potency result was “inactive”.

As for `O=C(CCCOc1ccc(Cl)cc1Cl)Nc1ccccc1C(=O)O`, the “growth rescue (activation)” value was inactive: 4.69%.

As for `O=C(CCc1ccccc1)Nc1nn[nH]n1`, the “growth rescue (activation)” value was inactive: 11.4%.

`CN1CCN(C(=O)CCc2ccc(S(=O)(=O)NC3CCCCC3)cc2)CC1`: the “growth rescue (activation)” value is inactive: 4.51%.

As for `CCOCC(=O)Nc1ccccc1C(=O)N1CCOCC1`, the “growth rescue (activation)” value was inactive: 0.761%.

Take `Cn1c(SCC(=O)Nc2cc(C(C)(C)C)nn2-c2ccccc2)nc2ccccc21`: the “growth rescue (activation)” value is inactive: 25.8%.
